Assay results: the supplement of paper PMC10441789
Some of the results follow. Antibody binding of pooled human sera (four to six donors per pool; dilution not stated) to peptides of the Trypanosoma cruzi antigen TSSA on microarrays. Quantile-normalised fluorescence in arbitrary units, mean of duplicate arrays; higher = more binding. No active / inactive call. The uninfected pools are read here as the healthy donors of the same country. The strongest signals lie near the top of the scale (about 60,000).

What was measured:
Assay in all cases: antibody binding signal (normalised fluorescence) (arbitrary fluorescence units); higher = stronger serum antibody binding to peptide
[1] = system: pooled sera of chronic Chagas disease patients, Argentina
Protocol: (§1)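 Microarray of 15-residue peptides over residues 30-55 of Trypanosoma cruzi TSSAII, each with 1 to 10 substitutions at naturally variable positions, probed with one serum pool per country.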

[2] = system: pooled sera of chronic Chagas disease patients, Bolivia
Protocol: as §1

[3] = system: pooled sera of chronic Chagas disease patients, Brazil
Protocol: as §1

[4] = system: pooled sera of chronic Chagas disease patients, Colombia
Protocol: as §1

[5] = system: pooled sera of chronic Chagas disease patients, Mexico
Protocol: as §1

[6] = system: pooled sera of chronic Chagas disease patients, USA
Protocol: as §1

[7] = system: pooled sera of uninfected people, Argentina
Protocol: as §1

[8] = system: pooled sera of uninfected people, Bolivia
Protocol: as §1

[9] = system: pooled sera of uninfected people, Brazil
Protocol: as §1

[10] = system: pooled sera of uninfected people, Colombia
Protocol: as §1

[11] = system: pooled sera of uninfected people, Mexico
Protocol: as §1

[12] = system: pooled sera of uninfected people, USA
Protocol: as §1

Row | Sequence | antibody binding signal [1] | antibody binding signal [2] | antibody binding signal [3] | antibody binding signal [4] | antibody binding signal [5] | antibody binding signal [6] | antibody binding signal [7] | antibody binding signal [8] | antibody binding signal [9] | antibody binding signal [10] | antibody binding signal [11] | antibody binding signal [12]
1 | ENKAAAGGTPSPPGA | 406 | 1210 | 341 | 3810 | 306 | 1120 | 178 | 177 | 1720 | 428 | 131 | 156
2 | TPPSGTEKKTAAGGT | 26100 | 1020 | 20200 | 5200 | 6300 | 2520 | 683 | 200 | 1210 | 191 | 107 | 140
3 | STPPSGTDNKPAAGG | 35200 | 48000 | 49800 | 3290 | 15300 | 42000 | 1440 | 811 | 977 | 333 | 1680 | 763
4 | DKKTAAGETPSQPGA | 441 | 752 | 27100 | 360 | 422 | 2490 | 173 | 594 | 188 | 1150 | 364 | 194
5 | GTENKTATGEAPSPP | 27600 | 31000 | 20900 | 2750 | 2470 | 22000 | 123 | 261 | 137 | 202 | 138 | 104
6 | KDKKPATGGTPSPPG | 296 | 238 | 138 | 447 | 224 | 324 | 153 | 97.7 | 234 | 125 | 82.5 | 96.7
7 | KDNKTATGEAPSQSG | 16400 | 27500 | 22600 | 2030 | 281 | 21300 | 604 | 235 | 188 | 275 | 175 | 170
8 | ENKPATGGAPSPPGA | 2100 | 17100 | 5850 | 408 | 782 | 3180 | 415 | 992 | 280 | 186 | 189 | 253
9 | KDKKPATGETPSPPG | 22400 | 2460 | 21200 | 131 | 112 | 18600 | 146 | 141 | 105 | 104 | 388 | 473
10 | TSSTPPSGKDKKTAA | 24600 | 1490 | 740 | 465 | 39100 | 650 | 454 | 318 | 97.8 | 154 | 97 | 169
11 | GKEKKTAAGGAPSQP | 526 | 235 | 299 | 3270 | 1170 | 1370 | 149 | 119 | 128 | 152 | 114 | 108
12 | DKKTATGGTPSQPGA | 575 | 477 | 613 | 4110 | 480 | 1470 | 526 | 108 | 314 | 707 | 938 | 154
13 | SGKENKPATGGTPSQ | 3440 | 1340 | 15500 | 3510 | 5000 | 16400 | 9540 | 4330 | 231 | 209 | 453 | 226
14 | GTEKKPATGETPSQS | 30900 | 18600 | 31400 | 1590 | 2280 | 22700 | 220 | 1150 | 1250 | 388 | 1850 | 803
15 | ISTPPSGTDNKAATG | 38000 | 42400 | 49700 | 1630 | 11300 | 19800 | 1070 | 665 | 1650 | 238 | 295 | 293
16 | SGTEKKPATGEAPSP | 44700 | 47300 | 47100 | 392 | 316 | 38000 | 839 | 1080 | 703 | 310 | 224 | 356
17 | GTDKKAATGGAPSQS | 545 | 245 | 562 | 1340 | 1250 | 853 | 297 | 561 | 102 | 513 | 255 | 137
18 | SGTENKAATGGTPSQ | 37500 | 10200 | 16900 | 728 | 671 | 2640 | 485 | 327 | 345 | 180 | 178 | 109
19 | KENKPATGGAPSQSG | 780 | 1790 | 4030 | 404 | 851 | 3550 | 418 | 690 | 130 | 125 | 197 | 163
20 | GTENKAATGEAPSPS | 38300 | 39400 | 35100 | 2180 | 2470 | 28400 | 170 | 386 | 136 | 168 | 132 | 89.8
21 | KENKTAAGEAPSPPG | 322 | 272 | 3130 | 805 | 279 | 7130 | 232 | 119 | 149 | 144 | 123 | 182
22 | GTDKKAAAGGAPSQP | 217 | 251 | 1560 | 4960 | 526 | 421 | 176 | 209 | 126 | 98.8 | 120 | 141
23 | TENKPAAGGTPSPSG | 44500 | 849 | 1670 | 1180 | 741 | 282 | 200 | 784 | 887 | 420 | 217 | 219
24 | GTDKKAATGGTPSPP | 435 | 406 | 295 | 2310 | 911 | 1280 | 225 | 175 | 414 | 789 | 131 | 124
25 | SGTDNKAATGGAPSQ | 1390 | 958 | 40900 | 957 | 636 | 1920 | 280 | 689 | 1520 | 216 | 196 | 200

Row | Sequence | antibody binding signal [1] | antibody binding signal [2] | antibody binding signal [3] | antibody binding signal [4] | antibody binding signal [5] | antibody binding signal [6] | antibody binding signal [7] | antibody binding signal [8] | antibody binding signal [9] | antibody binding signal [10] | antibody binding signal [11] | antibody binding signal [12]
26 | KDNKPAAGETPSQPG | 2330 | 1660 | 39600 | 390 | 188 | 4660 | 454 | 793 | 271 | 436 | 411 | 134
27 | ENKAATGGAPSQPGA | 677 | 4300 | 23200 | 872 | 550 | 3920 | 350 | 148 | 196 | 300 | 310 | 212
28 | STPPSGTEKKPAAGG | 44200 | 4510 | 43600 | 909 | 40700 | 13800 | 1850 | 934 | 506 | 157 | 426 | 1590
29 | GTDNKTAAGGAPSQP | 286 | 1140 | 20400 | 4010 | 494 | 305 | 274 | 683 | 1980 | 182 | 363 | 173
30 | TDNKTAAGEAPSPSG | 207 | 744 | 1880 | 146 | 211 | 7660 | 139 | 296 | 230 | 155 | 96.6 | 142
31 | PSGTENKTAAGETPS | 43500 | 24400 | 39800 | 1110 | 1940 | 8400 | 1040 | 510 | 226 | 375 | 345 | 445
32 | GTDKKPATGEAPSQP | 46500 | 39300 | 50500 | 5800 | 564 | 39100 | 870 | 646 | 334 | 265 | 699 | 203
33 | NKPAAGETPSPPGAS | 254 | 668 | 20400 | 355 | 234 | 2540 | 501 | 1110 | 451 | 868 | 230 | 1520
34 | GKDNKPAAGETPSQP | 1460 | 1360 | 35800 | 1300 | 1880 | 3810 | 411 | 850 | 161 | 291 | 352 | 103
35 | PPSGKDNKTAAGETP | 750 | 723 | 2050 | 1940 | 3450 | 3860 | 385 | 719 | 236 | 396 | 204 | 208
36 | TPPSGKENKPAAGGA | 16800 | 11900 | 13400 | 1810 | 5910 | 13600 | 5800 | 2170 | 267 | 616 | 217 | 704
37 | GTDNKPATGETPSPS | 36200 | 32400 | 43800 | 1440 | 358 | 25500 | 195 | 731 | 468 | 177 | 1870 | 2240
38 | GTDNKTAAGGAPSQS | 292 | 332 | 23800 | 4660 | 546 | 507 | 350 | 624 | 2070 | 185 | 305 | 202
39 | GKEKKAAAGETPSPS | 3600 | 744 | 438 | 3210 | 2370 | 2850 | 119 | 94.1 | 95.3 | 78.5 | 73.7 | 319
40 | TDNKTAAGEAPSQPG | 6210 | 21100 | 38300 | 165 | 260 | 8160 | 132 | 247 | 316 | 144 | 114 | 132
41 | KKPATGEAPSQPGAS | 21500 | 14400 | 45000 | 166 | 250 | 40500 | 921 | 744 | 162 | 184 | 107 | 517
42 | GKENKTATGGAPSQP | 2190 | 346 | 7190 | 4540 | 5240 | 13100 | 423 | 104 | 124 | 141 | 189 | 183
43 | KDKKTATGGTPSPSG | 342 | 252 | 211 | 1010 | 199 | 1180 | 171 | 81.9 | 123 | 100 | 84.2 | 122
44 | GTENKPATGETPSPS | 44800 | 35100 | 35400 | 1130 | 2540 | 29000 | 488 | 1170 | 361 | 182 | 1760 | 2140
45 | SGKDNKPATGGAPSP | 1730 | 914 | 11100 | 1390 | 1140 | 3370 | 504 | 1180 | 138 | 405 | 187 | 159
46 | SSTPPSGKEKKPATG | 21300 | 233 | 481 | 260 | 39100 | 466 | 552 | 727 | 106 | 277 | 127 | 208
47 | TENKPAAGGAPSQPG | 47200 | 1650 | 21700 | 1440 | 904 | 2640 | 252 | 453 | 390 | 192 | 254 | 224
48 | TSSTPPSGTDKKTAA | 33700 | 4280 | 34000 | 5310 | 40700 | 5840 | 1280 | 226 | 159 | 157 | 596 | 322
49 | TDNKAATGGAPSPPG | 501 | 518 | 2030 | 497 | 370 | 1660 | 277 | 316 | 264 | 197 | 145 | 129
50 | NKAATGGAPSPPGAS | 682 | 337 | 4430 | 578 | 318 | 1770 | 857 | 1200 | 266 | 664 | 230 | 1700
